Reference: PubChem BioAssay AID624417 (National Center for Advancing Translational Sciences (NCATS), 2012)
The whole screen tested about 410,000 compounds, of which about 6,400 (1.6%) were called active. The shares of active, inactive and inconclusive entries below differ from those in the screen. Calls follow the shape of the dose curve; as a rule, active = well fitted inhibition curve with a large enough effect; inconclusive = small, poorly fitted or top-dose-only effect; inactive = no such curve, though single readings can be large or run the other way. Potencies of inconclusive entries are left out as doubtful fits.

molecular target: Glucagon-like peptide 1 receptor (Homo sapiens) (UniProt P43220); experiment: qHTS of GLP-1 Receptor Inverse Agonists (Inhibition Mode); conditions: HEK293 GLP-1R CRE-luciferase, luminescence, 24 h, GLP-1R form is constitutively active; series mostly up to 38.3 µM; also: nearly all actives have a fitted effect of over 55% in size
Outline: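 Seeding at 200 cells/uL, 12 h culture, 24 hr compound treatment, then luciferase reagent and a luminescence read; cells are HEK293 stably expressing a constitutively active GLP-1R plus cAMP-responsive luciferase.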
Potency is read from the fitted curve at half-maximal effect; tags tell the direction and shape of the fitted curve.

Sequence of UniProt P43220 (P43220 whole entry, looked up): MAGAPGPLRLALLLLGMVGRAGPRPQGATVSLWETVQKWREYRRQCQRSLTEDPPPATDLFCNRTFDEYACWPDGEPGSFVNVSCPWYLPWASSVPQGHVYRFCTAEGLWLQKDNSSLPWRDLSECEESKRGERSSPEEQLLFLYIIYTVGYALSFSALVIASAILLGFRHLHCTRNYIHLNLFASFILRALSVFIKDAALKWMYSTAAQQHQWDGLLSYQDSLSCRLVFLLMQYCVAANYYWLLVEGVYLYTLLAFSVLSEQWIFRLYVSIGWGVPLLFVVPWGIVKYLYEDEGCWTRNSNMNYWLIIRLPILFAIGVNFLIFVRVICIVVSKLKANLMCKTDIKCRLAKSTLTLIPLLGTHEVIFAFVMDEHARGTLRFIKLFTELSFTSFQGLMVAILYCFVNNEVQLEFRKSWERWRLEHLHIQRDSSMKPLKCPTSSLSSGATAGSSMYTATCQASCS

Row | Structure (SMILES) | Potency
1 | Oc1ccc(CN2CCc3ccccc3C2)c2cccnc12 | inconclusive [inhibitor, full curve, poor fit]
2 | Cc1ccc(C)c(S(=O)(=O)NCCOC(=O)Nc2sc(=S)n(C)c2C)c1 | inconclusive [inhibitor, single point]
3 | O=C(Nc1ccc(Cl)c(S(=O)(=O)N2CCOCC2)c1)c1cc(-c2ccccn2)nc2ccccc12 | inconclusive [inhibitor, single point]
4 | NS(=O)(=O)c1cccc(NC(=O)COC(=O)c2ccc(S(=O)(=O)N3CCOCC3)cc2)c1 | inactive
5 | Nc1nc(SCC(=O)NCCCO)nc2sc3c(c12)CCC3 | inconclusive [inhibitor, single point]
6 | COc1ccc(CNC(=O)C(C)N2C(=O)NC(c3ccccc3)(c3ccccc3)C2=O)cc1 (configuration not stated) | inconclusive [inhibitor, partial curve, poor fit]
7 | CN1CCO/C1=C(\C(Cl)=C(Cl)Cl)[N+](=O)[O-] | inactive
8 | COc1ccc(-c2nnc(NC(=O)c3ccc(S(=O)(=O)N4COCC4(C)C)cc3)o2)cc1 | inconclusive [inhibitor, partial curve, poor fit]
9 | COc1ccc(-c2csc(C(C)(O)c3ccc(F)c(F)c3)n2)cn1 (configuration not stated) | inconclusive [inhibitor, single point]
10 | O=C(C1CCCN(S(=O)(=O)c2ccccc2)C1)N1CCCc2ccccc21 (configuration not stated) | inconclusive [inhibitor, single point]
11 | CC(CN(C)Cc1nc(Cc2cccc(C(F)(F)F)c2)no1)CN1CCCC1 (configuration not stated) | inconclusive [inhibitor, single point]
12 | CN(C)C(=O)c1cccc(-c2cnc3c(NC=O)cc(-c4ccccc4Cl)cn23)c1 | inconclusive [inhibitor, single point]
13 | COc1ccccc1NC(=O)Nc1nc(C(N)CCc2ccccc2)cs1 (configuration not stated) | inconclusive [inhibitor, single point]
14 | O=C(NCCN1CCCCC1)Nc1ccc(Br)cc1 | inconclusive [inhibitor, partial curve, poor fit]
15 | O=C(CCc1ccccc1)NCCc1csc(-c2cccc(F)c2)n1 | inconclusive [inhibitor, partial curve]
16 | COc1ccc(NC(=O)c2ccc3c(c2)c(C)c(C)n3Cc2ccc(F)cc2)cc1 | inconclusive [inhibitor, partial curve, poor fit]
17 | COc1cccc(CN2CCC2(C)C(=O)Nc2cccc3cccnc23)c1OC (configuration not stated) | inconclusive [inhibitor, single point]
18 | O=C(Nc1ccc(NC(=S)NC(=O)c2ccccc2Cl)cc1)c1cccc(Cl)c1 | inconclusive [inhibitor, full curve, poor fit]
19 | Cc1cc(C)c2c(-n3cccc3)c(C(=O)NCCCN3CCCCC3)sc2n1 | inactive
20 | OCCN1CCN(C(=S)Nc2ccc(Oc3ccccc3)cc2)CC1 | inconclusive [inhibitor, partial curve, poor fit]
21 | Cn1c(=NC(=O)CCS(=O)(=O)c2ccccc2)sc2cc(F)ccc21 | inactive

Row | Structure (SMILES) | Potency
22 | Cc1nn(Cc2ccc(F)cc2)c(Cl)c1/C=N/NC(=O)c1ccccc1 | inconclusive [inhibitor, full curve, poor fit]
23 | COc1cc(/C=C2\N=C(C)OC2=O)cc(Cl)c1OC(C)=O | inactive
24 | CC(=O)c1cccc(NC(=O)c2noc3c2CSc2ccccc2-3)c1 | inactive
25 | COc1ccc(NC(=O)c2c(N)c(C(=O)c3ccc(C)cc3)n3ccccc23)cc1OC | inactive
26 | COc1ccccc1-c1csc(C(C)(O)c2ccccc2)n1 (configuration not stated) | inconclusive [inhibitor, single point]
27 | O=c1[nH]c2ccccc2cc1CN(c1ccccc1)S(=O)(=O)c1ccccc1 | inactive
28 | CCOC(=O)C1(Cc2ccccc2)CCCN(Cc2ccccn2)C1 (configuration not stated) | inconclusive [inhibitor, partial curve, poor fit]
29 | O=C(NNc1c2ccccc2nc2ccccc12)C(O)c1ccccc1 (configuration not stated) | inconclusive [inhibitor, full curve, poor fit]
30 | O=S(=O)(/N=C(/Nc1cccc2ccccc12)c1ccccc1)c1ccc(F)cc1 | inconclusive [inhibitor, partial curve, poor fit]
31 | COc1cc(-c2nc(-c3ccccc3)c(-c3cccs3)[nH]2)cc(OC)c1O | inconclusive [inhibitor, single point]
32 | O=C(CCC(=O)c1ccc(Oc2ccccc2)cc1)Nc1cccc(Cl)c1Cl | inconclusive [inhibitor, single point]
33 | Cc1ccc(C)c(CN2C(=O)c3ccccc3Sc3ccc(C(=O)NCc4cccs4)cc32)c1 | inconclusive [inhibitor, partial curve, poor fit]
34 | CCOc1cc(-c2ccc(N)c(OCC)c2)ccc1N | inactive
35 | CC(C)C1CCN(C(=O)C2CCC(=O)N(C3CCCCCC3)C2)CC1 (configuration not stated) | inactive
36 | NS(=O)(=O)c1ccc(CCNc2nn3c(-c4cccc(OC(F)(F)F)c4)cnc3s2)cc1 | inconclusive [inhibitor, partial curve, poor fit]
37 | CCCN(CCC)Cc1c(C(=O)N/N=C/C(C)=C\c2ccccc2)nnn1-c1nonc1N | active: 2.82 µM
38 | O=C(Nc1cnn(Cc2ccccc2)c1)NC12CC3CC(CC(C3)C1)C2 | inconclusive [inhibitor, partial curve, poor fit]
39 | CN1C(=O)/C(=C/c2ccccc2OCc2ccccc2)NC1=S | inconclusive [inhibitor, full curve, poor fit]
40 | CCOC(=O)CN1C(=O)N(CC(=O)OCC)C(c2ccccc2)(c2ccccc2)C1=O | inconclusive [inhibitor, single point]
41 | COc1ccc(CNC(=O)CCc2nc3cccnc3n2Cc2ccccc2)cc1 | inactive
42 | O=C(NCc1ccco1)C1CC(c2ccc(Cl)cc2)=NO1 (configuration not stated) | inconclusive [inhibitor, partial curve, poor fit]
